Reference: article PMC7297730
Numbering of substitutions follows the chain as printed. Numbers in names are those of the source. These are yes or no findings as the source states them, for the method shown. Some binding calls cover weakened binding; strength is not graded here. Each block holds one binder with its values, some of them ahead of it.

Tests used:
[1] = biological target: T1, SMC6 peptide aa960-984 (S. pombe) (UniProt P53692); assay: ELISA; SMC6 peptides (library covering aa875-1024) pre-bound to ELISA plates, tested against Nse4(1-150) and control human TRF2 protein
T1 sequence (peptide): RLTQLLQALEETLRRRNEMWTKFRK

[2] = biological target: T2, SMC6 peptide aa970-994 (S. pombe) (UniProt P53692); assay: as above
T2 sequence (peptide): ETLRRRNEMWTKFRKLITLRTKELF

[3] = biological target: T3, Gal4BD-Nse4 (S. pombe) (UniProt Q6BDR8); assay: two-hybrid; classical Y2H: Gal4BD-Nse4 + Gal4AD-Nse3; -L,T,H plates with 10 mM 3-aminotriazole
T3 sequence: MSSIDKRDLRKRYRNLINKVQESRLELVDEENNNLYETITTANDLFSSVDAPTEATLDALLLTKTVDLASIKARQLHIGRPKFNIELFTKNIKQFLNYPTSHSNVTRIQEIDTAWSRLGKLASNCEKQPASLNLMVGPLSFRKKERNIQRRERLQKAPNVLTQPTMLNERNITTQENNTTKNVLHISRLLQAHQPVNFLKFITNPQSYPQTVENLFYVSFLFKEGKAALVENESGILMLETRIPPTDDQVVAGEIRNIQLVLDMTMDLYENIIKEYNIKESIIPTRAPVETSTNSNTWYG

[4] = biological target: T4, Gal4BD-Nse4 L68C (S. pombe) (UniProt Q6BDR8); assay: as above
T4 sequence: T3 sequence with L68C

[5] = biological target: T5, Gal4BD-Nse4 L62C (S. pombe) (UniProt Q6BDR8); assay: as above
T5 sequence: T3 sequence with L62C

[6] = biological target: T6, Gal4BD-Nse4 T65R (S. pombe) (UniProt Q6BDR8); assay: as above
T6 sequence: T3 sequence with T65R

[7] = biological target: T7, pGBKT7-Nse3(aa1-328) (S. pombe) (UniProt Q9Y7U4); assay: two-hybrid; classical Y2H of the Nse1-Nse3 binary interaction (Fig. 4A, columns 9 and 10)
T7 sequence: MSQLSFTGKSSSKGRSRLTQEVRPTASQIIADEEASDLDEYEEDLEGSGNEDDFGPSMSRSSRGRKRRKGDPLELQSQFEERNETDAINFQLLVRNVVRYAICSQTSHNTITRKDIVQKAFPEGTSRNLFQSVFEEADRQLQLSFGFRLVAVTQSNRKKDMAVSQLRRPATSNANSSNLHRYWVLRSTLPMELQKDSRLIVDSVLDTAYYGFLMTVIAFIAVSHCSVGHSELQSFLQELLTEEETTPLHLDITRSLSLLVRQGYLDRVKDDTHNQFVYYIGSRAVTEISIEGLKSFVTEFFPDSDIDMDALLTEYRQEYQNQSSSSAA

[8] = biological target: T8, Nse5-Nse6 (Gal4BD-Nse5 with non-hybrid Nse6) (S. pombe) (UniProt O94668+O13688); assay: two-hybrid; 3Y2H: Gal4AD-SMC6 + Gal4BD-Nse5 + non-hybrid Nse6 (p416ADH1-Nse6); -L,T,U,H plates with 3 mM 3-aminotriazole
T8 sequence 1: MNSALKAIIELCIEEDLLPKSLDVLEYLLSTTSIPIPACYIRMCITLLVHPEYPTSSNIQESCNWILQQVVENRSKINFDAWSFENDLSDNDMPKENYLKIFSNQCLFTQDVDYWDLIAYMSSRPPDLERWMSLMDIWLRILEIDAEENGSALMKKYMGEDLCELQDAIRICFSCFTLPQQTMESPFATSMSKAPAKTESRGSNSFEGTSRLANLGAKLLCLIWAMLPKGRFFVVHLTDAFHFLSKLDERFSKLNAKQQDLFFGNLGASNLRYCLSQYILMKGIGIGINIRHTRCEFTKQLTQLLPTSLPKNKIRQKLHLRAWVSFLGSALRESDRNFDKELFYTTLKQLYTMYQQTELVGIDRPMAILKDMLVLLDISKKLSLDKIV
T8 sequence 2: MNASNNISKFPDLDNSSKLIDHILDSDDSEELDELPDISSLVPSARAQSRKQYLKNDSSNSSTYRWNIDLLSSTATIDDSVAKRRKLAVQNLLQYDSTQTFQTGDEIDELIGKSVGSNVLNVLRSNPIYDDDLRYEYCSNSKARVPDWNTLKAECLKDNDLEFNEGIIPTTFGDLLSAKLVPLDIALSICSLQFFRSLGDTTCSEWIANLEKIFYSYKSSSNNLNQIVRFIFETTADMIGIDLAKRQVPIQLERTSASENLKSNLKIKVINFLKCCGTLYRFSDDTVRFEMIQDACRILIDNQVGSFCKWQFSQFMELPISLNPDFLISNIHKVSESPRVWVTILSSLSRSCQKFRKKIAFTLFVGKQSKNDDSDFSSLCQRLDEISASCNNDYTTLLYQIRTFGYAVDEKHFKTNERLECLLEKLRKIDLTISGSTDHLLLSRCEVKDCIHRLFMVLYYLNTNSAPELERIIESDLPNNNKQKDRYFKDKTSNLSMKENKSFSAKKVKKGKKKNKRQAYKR

[9] = biological target: T7, pGBKT7-Nse3(aa1-328) (S. pombe); assay: two-hybrid; 3Y2H of the Nse1-Nse3-Nse4 trimer: hybrid Nse3 and Nse4 with non-hybrid Nse1 wild type (Fig. 4A, columns 5 and 6; Fig. 5A, column 6)

binding [1]: binds weakly
binding [2]: binds weakly
B1: Nse4(1-150) (domain or fragment, UniProt Q6BDR8 1-150)
chain: MSSIDKRDLRKRYRNLINKVQESRLELVDEENNNLYETITTANDLFSSVDAPTEATLDALLLTKTVDLASIKARQLHIGRPKFNIELFTKNIKQFLNYPTSHSNVTRIQEIDTAWSRLGKLASNCEKQPASLNLMVGPLSFRKKERNIQR

binding [3]: binds
binding [4]: binds
binding [5]: binds
binding [6]: binds
B2: Gal4AD-Nse3 (protein, UniProt Q9Y7U4 1-328)
chain: T7 sequence

binding [7]: binds
B3: pOAD-Nse1(aa1-232) (protein, UniProt Q53EK2 1-232)
chain: MEKERQDGLSDKHKFILQYIMCRTAGVDNEQVRELVQEQYGETATVEDVINELNNSLHNFDFKIKRVQDQLDGRLTLHFQNLSGDPVSQMATPYPPVQIELMRKIIEWIMKCDDYQYSLTTLQIQKLSRKEMGLAPSVIESHLHTFERDGWLRQREGIWTFTNHALAELDAYLHNEYESNLYECNACREIVIAGYVCDCGYCLHVYCCKHLAHVNCINCNTPWANATVIGRW

binding [7]: no binding
B4: pOAD-Nse1(aa1-232) Q18A, M21A (protein, UniProt Q53EK2 1-232)
chain: B3 chain with Q18A, M21A

More lines, now with the values behind:

B5: Gal4AD-SMC6 L965A (protein, UniProt P53692 1-1140)
chain: MTTELTNVSLEEAITEKTSENRRKRDSDVLQTEEVDLSNVKRIRASRNQDNRPERQSRLQRSSSLIEQVRGNEDGENDVLNQTRETNSNFDNRVGVIECIHLVNFMCHDSLKINFGPRINFVIGHNGSGKSAILTGLTICLGAKASNTNRAPNMKSLVKQGKNYARISVTISNRGFEAYQPEIYGKSITIERTIRREGSSEYRLRSFNGTVISTKRDELDNICDHMGLQIDNPMNILTQDTARQFLGNSSPKEKYQLFMKGIQLKQLEENYSLIEQSLINTKNVLGNKKTGVSYLAKKEEEYKLLWEQSRETENLHNLLEQKKGEMVWAQVVEVEKELLLAEKEFQHAEVKLSEAKENLESIVTNQSDIDGKISSKEEVIGRAKGETDTTKSKFEDIVKTFDGYRSEMNDVDIQKRDIQNSINAAKSCLDVYREQLNTERARENNLGGSQIEKRANESNNLQREIADLSEQIVELESKRNDLHSALLEMGGNLTSLLTKKDSIANKISDQSEHLKVLEDVQRDKVSAFGKNMPQLLKLITRETRFQHPPKGPMGKYMTVKEQKWHLIIERILGNVINGFIVRSHHDQLILKELMRQSNCHATVVVGKYDPFDYSSGEPDSQYPTVLKIIKFDDDEVLHTLINHLGIEKMLLIEDRREAEAYMKRGIANVTQCYALDPRNRGYGFRIVSTQRSSGISKVTPWNRPPRIGFSSSTSIEAEKKILDDLKKQYNFASNQLNEAKIEQAKFKRDEQLLVEKIEGIKKRILLKRREVNSLESQELSVLDTEKIQTLERRISETEKELESYAGQLQDAKNEEHRIRDNQRPVIEEIRIYREKIQTETQRLSSLQTELSRLRDEKRNSEVDIERHRQTVESCTNILREKEAKKVQCAQVVADYTAKANTRCERVPVQLSPAELDNEIERLQMQIAEWRNRTGVSVEQAAEDYLNAKEKHDQAKVLVARLTQLAQALEETLRRRNEMWTKFRKLITLRTKELFELYLSQRNFTGKLVIKHQEEFLEPRVYPANRNLATAHNRHEKSKVSVQGLSGGEKSFATICMLLSIWEAMSCPLRCLDEFDVFMDAVNRLVSIKMMVDSAKDSSDKQFIFITPQDMGQIGLDKDVVVFRLSDPVVSSSALPPSTAP
binding [8]: binds

B6: Gal4AD-SMC6 L972A (protein, UniProt P53692 1-1140)
chain: B5 chain with A965L, L972A
binding [8]: binds

B7: Gal4AD-SMC6 R975A (protein, UniProt P53692 1-1140)
chain: B5 chain with A965L, R975A
binding [8]: binds

B8: pGADT7-Nse4(aa1-300)/del87-91 (protein, UniProt Q6BDR8)
chain: MSSIDKRDLRKRYRNLINKVQESRLELVDEENNNLYETITTANDLFSSVDAPTEATLDALLLTKTVDLASIKARQLHIGRPKFNIEIKQFLNYPTSHSNVTRIQEIDTAWSRLGKLASNCEKQPASLNLMVGPLSFRKKERNIQRRERLQKAPNVLTQPTMLNERNITTQENNTTKNVLHISRLLQAHQPVNFLKFITNPQSYPQTVENLFYVSFLFKEGKAALVENESGILMLETRIPPTDDQVVAGEIRNIQLVLDMTMDLYENIIKEYNIKESIIPTRAPVETSTNSNTWYG
binding [9]: binds
